# Test results reported in the supplement of paper PMC10037445.
# Whole data set: some 2,900 compounds, median “IRF Lucia reporter activity, fold change vs agonist alone” near 0.9, cut for the highest 2% near 2.8. This is one part of the list.
# Tests used:
# RAW-Dual [1] = test: IRF Lucia reporter activity, fold change vs agonist alone; cytotoxicity flag (confluency mask): not cytotoxic; higher = enhanced IRF activity
# Procedure, shortened: (§1)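 RAW-Dual macrophages (50,000 cells/well in DMEM, 384-well plates) received 50 nL of library stock by pin tool, then a PRR agonist 1 h later, and were kept at 37 °C, 5% CO2. After 20 hours, supernatant was read for IRF by QuantiLuc luminescence and for NF-κB by QuantiBlue absorbance at 620 nm. Reporter activity is fold change over agonist-alone wells. Cytotoxic wells had IncuCyte confluency below 70% of agonist controls in both mask sets.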
# RAW-Dual [2] = test: IRF Lucia reporter activity, fold change vs agonist alone; higher = enhanced IRF activity; details: library stock concentration (final ~1000-fold dilution): 10 mM, agonist: MPLA (TLR4) […]
# Procedure, shortened: as §1
# RAW-Dual [3] = test: IRF Lucia reporter activity, fold change vs agonist alone; cytotoxicity flag (confluency mask): cytotoxic (confluency <70% of control); higher = enhanced IRF activity
# Procedure, shortened: as §1
# [4] = agonist: 3'3'-cGAMP (STING) 10 ug/mL
# [5] = cytotoxicity flag (confluency mask): not cytotoxic
smiles,measurement,setting,value
c1ccc(Cn2c(-c3ccc(OCC(C4CCNCC4)n4c(-c5ccccc5)nc5ccccc54)cc3)nc3ccccc32)cc1 (stereo not given) (library stock concentration (final ~1000-fold dilution): 10 mM),IRF Lucia reporter activity,RAW-Dual [1]; [4],0.0193
same,IRF Lucia reporter activity,RAW-Dual [1]; agonist: LPS (TLR4) 0.1 ug/mL,0.0422
CCOC(=O)c1ccc(N2NC(=O)/C(=C/c3ccc([N+](=O)[O-])o3)C2=O)cc1,IRF Lucia reporter activity,RAW-Dual [2]; [5],0.414
CCOC(=O)c1ccc(N2NC(=O)/C(=C/c3ccc([N+](=O)[O-])o3)C2=O)cc1 (library stock concentration (final ~1000-fold dilution): 10 mM),IRF Lucia reporter activity,RAW-Dual [1]; [4],0.527
same,IRF Lucia reporter activity,RAW-Dual [1]; agonist: LPS (TLR4) 0.1 ug/mL,0.445
O=C(O)c1ccc(N2C(=O)/C(=C/c3ccc(-c4ccc([N+](=O)[O-])cc4)o3)C=C2c2ccccc2)cc1,IRF Lucia reporter activity,RAW-Dual [2]; [5],0.571
O=C(O)c1ccc(N2C(=O)/C(=C/c3ccc(-c4ccc([N+](=O)[O-])cc4)o3)C=C2c2ccccc2)cc1 (library stock concentration (final ~1000-fold dilution): 10 mM),IRF Lucia reporter activity,RAW-Dual [1]; [4],0.168
same,IRF Lucia reporter activity,RAW-Dual [1]; agonist: LPS (TLR4) 0.1 ug/mL,0.439
Cc1ccc(C(=O)N(CCCN)C(c2nc3cc(Cl)ccc3c(=O)n2Cc2ccccc2)C(C)C)cc1 (stereo not given),IRF Lucia reporter activity,RAW-Dual [2]; cytotoxicity flag (confluency mask): cytotoxic (confluency <70% of control),0.128
Cc1ccc(C(=O)N(CCCN)C(c2nc3cc(Cl)ccc3c(=O)n2Cc2ccccc2)C(C)C)cc1 (stereo not given) (library stock concentration (final ~1000-fold dilution): 10 mM),IRF Lucia reporter activity,RAW-Dual [3]; [4],0.119
same,IRF Lucia reporter activity,RAW-Dual [3]; agonist: LPS (TLR4) 0.1 ug/mL,0.145
COc1cc(C(=O)N(CCCc2ccccc2)Cc2ccc(CC(=O)O)cc2)cc(OC)c1C (library stock concentration (final ~1000-fold dilution): 10 mM),IRF Lucia reporter activity,RAW-Dual [1]; [4],1.45
same,IRF Lucia reporter activity,RAW-Dual [1]; agonist: LPS (TLR4) 0.1 ug/mL,1.21
O=C(O)c1cc(O)c2ccccc2n1,IRF Lucia reporter activity,RAW-Dual [2]; [5],1.07
O=C(O)c1cc(O)c2ccccc2n1 (library stock concentration (final ~1000-fold dilution): 10 mM),IRF Lucia reporter activity,RAW-Dual [1]; [4],0.998
same,IRF Lucia reporter activity,RAW-Dual [1]; agonist: LPS (TLR4) 0.1 ug/mL,1.3
Nc1ccc(F)cc1NC(=O)c1ccc(CNC(=O)/C=C/c2cccnc2)cc1 (library stock concentration (final ~1000-fold dilution): 10 mM),IRF Lucia reporter activity,RAW-Dual [1]; [4],0.467
same,IRF Lucia reporter activity,RAW-Dual [1]; agonist: LPS (TLR4) 0.1 ug/mL,0.477
COc1ccc(COc2cc3oc(=O)c4cc(C(C)O)ccc4c3cc2OC)cc1 (stereo not given) (library stock concentration (final ~1000-fold dilution): 10 mM),IRF Lucia reporter activity,RAW-Dual [1]; [4],0.813
same,IRF Lucia reporter activity,RAW-Dual [1]; agonist: LPS (TLR4) 0.1 ug/mL,1.24
COc1ccc(COc2cc3oc(=O)c4cc(C(C)O)ccc4c3cc2OC)cc1 (stereo not given),IRF Lucia reporter activity,RAW-Dual [2]; [5],1.36
CC/C=C\C/C=C\C/C=C\C/C=C\C/C=C\C/C=C\CCC(=O)NCCNC(=O)c1ccccc1O (library stock concentration (final ~1000-fold dilution): 10 mM),IRF Lucia reporter activity,RAW-Dual [3]; [4],0.0149
same,IRF Lucia reporter activity,RAW-Dual [3]; agonist: LPS (TLR4) 0.1 ug/mL,0.0265
CC(C)C(NC(=O)C(CC(=O)O)NC(=O)C(CCCCN)NC(=O)C(N)CCCNC(=N)N)C(=O)NC(Cc1ccc(O)cc1)C(=O)O (stereo not given) (library stock concentration (final ~1000-fold dilution): 10 mM),IRF Lucia reporter activity,RAW-Dual [1]; [4],1.04
same,IRF Lucia reporter activity,RAW-Dual [1]; agonist: LPS (TLR4) 0.1 ug/mL,0.875
CC(C)C(NC(=O)C(CC(=O)O)NC(=O)C(CCCCN)NC(=O)C(N)CCCNC(=N)N)C(=O)NC(Cc1ccc(O)cc1)C(=O)O (stereo not given),IRF Lucia reporter activity,RAW-Dual [2]; [5],0.987
Cl.OC(CCN1CCCCC1)(c1ccccc1)C1CCCCC1 (stereo not given),IRF Lucia reporter activity,RAW-Dual [2]; [5],1.21
Cl.OC(CCN1CCCCC1)(c1ccccc1)C1CCCCC1 (stereo not given) (library stock concentration (final ~1000-fold dilution): 10 mM),IRF Lucia reporter activity,RAW-Dual [1]; [4],0.687
same,IRF Lucia reporter activity,RAW-Dual [1]; agonist: LPS (TLR4) 0.1 ug/mL,1.49
CC1=C(CSC(=S)N2CCCCC2)C(=O)c2ccccc2C1=O (library stock concentration (final ~1000-fold dilution): 10 mM),IRF Lucia reporter activity,RAW-Dual [3]; [4],0.553
same,IRF Lucia reporter activity,RAW-Dual [3]; agonist: LPS (TLR4) 0.1 ug/mL,0.0143
COc1cc(O)c(C(=O)Nc2nc(C(=O)NCCN(C(C)C)C(C)C)cs2)cc1OC.Cl.O.O.O (library stock concentration (final ~1000-fold dilution): 10 mM),IRF Lucia reporter activity,RAW-Dual [1]; [4],0.967
same,IRF Lucia reporter activity,RAW-Dual [1]; agonist: LPS (TLR4) 0.1 ug/mL,0.665
COc1cc(O)c(C(=O)Nc2nc(C(=O)NCCN(C(C)C)C(C)C)cs2)cc1OC.Cl.O.O.O,IRF Lucia reporter activity,RAW-Dual [2]; [5],1.03
NC(CSC(c1ccccc1)(c1ccccc1)c1ccccc1)C(=O)O (stereo not given) (library stock concentration (final ~1000-fold dilution): 10 mM),IRF Lucia reporter activity,RAW-Dual [1]; [4],0.693
same,IRF Lucia reporter activity,RAW-Dual [1]; agonist: LPS (TLR4) 0.1 ug/mL,1.77
NC(CSC(c1ccccc1)(c1ccccc1)c1ccccc1)C(=O)O (stereo not given),IRF Lucia reporter activity,RAW-Dual [2]; [5],1.49
OCC(O)CN1CCN(c2ccccc2)CC1 (stereo not given),IRF Lucia reporter activity,RAW-Dual [2]; [5],1.13
OCC(O)CN1CCN(c2ccccc2)CC1 (stereo not given) (library stock concentration (final ~1000-fold dilution): 10 mM),IRF Lucia reporter activity,RAW-Dual [1]; [4],1.06
same,IRF Lucia reporter activity,RAW-Dual [1]; agonist: LPS (TLR4) 0.1 ug/mL,1.05
